{"source": "PubChem BioAssay AID686979", "about": "(National Center for Advancing Translational Sciences (NCATS), 2013)", "note": "Among all 420,000 compounds or so, about 50,000 (12%) were called active. The inconclusive results got no clear call from the source; some entries with a clear call stand among them for comparison. The call rests on the fitted dose curve; in most records, active means well fitted inhibition curve with a large enough effect; inconclusive means small, poorly fitted or top-dose-only effect; inactive means flat fitted curve, though single readings scatter. Potencies of inconclusive entries are left out as doubtful fits. Potency means the concentration at half of the fitted maximal effect; tags describe the fitted curve by direction and shape.", "data": [{"experiment": "qHTS for Inhibitors of human tyrosyl-DNA phosphodiesterase 1 (TDP1): qHTS in cells in presence of CPT; further: nearly all actives have a fitted effect of over 55% in size", "conditions": "chicken DT40 Tdp1-/-;hTDP1 cells + 20 nM CPT, ATP luminescence, 48 h; series mostly up to 46.2 µM", "outline": "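Chicken DT40 Tdp1-/- cells stably complemented with human TDP1 were seeded at 400 cells/well in medium containing 20 nM camptothecin, exposed to pin-transferred compounds, and grown at 37 °C for at least 48 hr. Viability was read as ATP luminescence.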", "values": [{"molecule": "COc1ccc(C)cc1S(=O)(=O)Nc1ccc2c(c1)OCO2", "Potency": "inactive"}, {"molecule": "CCc1nnc(N/N=C/c2ccc(N3CCC(C)CC3)c([N+](=O)[O-])c2)n1N", "Potency": "inconclusive [inhibitor, partial curve, poor fit]"}, {"molecule": "Cc1ccc(CNC(=O)[C@H](C)N2C(=O)N3CCc4c([nH]c5ccccc45)[C@@]3(C)C2=O)cc1", "Potency": "inconclusive [inhibitor, full curve]"}, {"molecule": "C[C@@H](C(=O)NCc1ccccn1)[C@@H]1C[C@@]1(C)[C@@H](NC(=O)OCc1ccccc1)c1ccccc1", "Potency": "active: 23.1 µM"}, {"molecule": "COc1cc(C=O)c(Br)cc1OCC(=O)NCCc1ccccc1", "Potency": "inconclusive [inhibitor, single point]"}, {"molecule": "Cc1ccccc1OCCN1CCC(Cc2ccccc2)CC1", "Potency": "inconclusive [inhibitor, single point]"}, {"molecule": "C[C@@H]1CN(S(=O)(=O)C(C)(C)C)[C@H](CCO)/C1=C\\c1ccccc1", "Potency": "inactive"}, {"molecule": "O=C(CC1SC(N2CCCC2)=NC1=O)Nc1ccc(C(=O)N2CCN(c3cccc(Cl)c3)CC2)cc1", "note": "(centres undefined)", "Potency": "active: 14.6 µM"}, {"molecule": "CCCN1C(=O)C2(c3ccccc31)c1c(oc3ccc(C)cc3c1=O)C(=O)N2CCOC", "note": "(centres undefined)", "Potency": "inconclusive [inhibitor, single point]"}, {"molecule": "CCOC(=O)/C(=N/Nc1ccccc1)Sc1nnnn1-c1ccc(C)cc1", "Potency": "inactive"}, {"molecule": "Cc1ccc(NC(=O)c2ccc(CSc3nccc(C)n3)cc2)cc1", "Potency": "inconclusive [inhibitor, single point]"}, {"molecule": "CCN(CC)c1ccc(/C=N/NC(=O)c2ccc(Br)o2)cc1", "Potency": "inconclusive [inhibitor, single point]"}, {"molecule": "COc1ccc(NC(=O)C/C(C)=N/NC(=O)c2cccs2)c([N+](=O)[O-])c1", "Potency": "inactive"}, {"molecule": "COc1ccccc1C1N=C(Nc2nc3ccccc3o2)NC2=C1C(=O)CC(C)(C)C2", "note": "(centres undefined)", "Potency": "inconclusive [inhibitor, single point]"}, {"molecule": "O=[N+]([O-])c1cccc(COc2cccc(CN3CCOCC3)c2)c1", "Potency": "inactive"}, {"molecule": "Cc1ccc(C)c(OCC(=O)Nc2ccc3c(c2)OCO3)c1C", "Potency": "inconclusive [inhibitor, partial curve]"}, {"molecule": "Cc1ccsc1/C=C(\\C(=O)c1ccc(OC(C)C)cc1)c1nc2ccccc2o1", "Potency": "active: 16.4 µM"}, {"molecule": "CCc1ccc(Oc2cc(C)nc(N)n2)cc1", "Potency": "inconclusive [inhibitor, partial curve, poor fit]"}, {"molecule": "COc1cc(C(=O)N2CC(=O)Nc3ccc(C)cc3C2c2ccc(F)cc2)cc(OC)c1OC", "note": "(centres undefined)", "Potency": "inconclusive [inhibitor, single point]"}]}]}
